Laboratory results reported in PMC4490372, “Architecture of TFIIIC and its role in RNA polymerase III pre-initiation complex assembly” (Nature Communications, 2015).
Positions count from the first letter of the chain named. Numbers in names are those of the source. Results are given in words; binding and its absence hold for the method and conditions named. Some binding calls cover weakened binding; strength is not graded here. For some assays here: Sequences can lack the tags named with a protein. Each block holds one binder with its values, some of them ahead of it.

Key:
[1] = biological target: T1, τ60 (Tfc8), τB subunit of endogenous S. cerevisiae TFIIIC, fused with a C-terminal TAP-tag (S. cerevisiae) (UniProt Q12308); test: SEC; endogenous TFIIIC purified from yeast by the TAP tag on τ60 (heparin, IgG Sepharose, TEV, MonoQ), then Superose 6 10/300 in 25 mM HEPES pH 7.5, 150 mM NaCl, 1 mM DTT; SDS-PAGE of an elution peak fraction
T1 sequence: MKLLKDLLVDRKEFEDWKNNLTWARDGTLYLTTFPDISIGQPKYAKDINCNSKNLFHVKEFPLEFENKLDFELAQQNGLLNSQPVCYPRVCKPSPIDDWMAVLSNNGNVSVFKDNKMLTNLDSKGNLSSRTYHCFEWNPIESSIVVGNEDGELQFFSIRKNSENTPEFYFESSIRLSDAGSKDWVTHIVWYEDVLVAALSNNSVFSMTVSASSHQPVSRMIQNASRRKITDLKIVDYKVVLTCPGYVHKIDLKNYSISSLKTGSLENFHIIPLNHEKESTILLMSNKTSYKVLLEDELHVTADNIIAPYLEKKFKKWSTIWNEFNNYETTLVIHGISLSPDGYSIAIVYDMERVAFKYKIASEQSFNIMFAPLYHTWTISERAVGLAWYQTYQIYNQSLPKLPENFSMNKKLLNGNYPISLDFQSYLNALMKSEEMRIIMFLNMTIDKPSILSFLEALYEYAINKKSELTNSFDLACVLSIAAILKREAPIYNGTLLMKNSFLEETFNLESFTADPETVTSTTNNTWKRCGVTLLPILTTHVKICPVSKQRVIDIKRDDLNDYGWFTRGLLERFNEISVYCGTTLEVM

[2] = biological target: T2, τ138 (546–641), extended winged helix (eWH) domain (S. cerevisiae) (UniProt P34111); test: ITC; MicroCal ITC200; 15 μM τ138 in the cell, 150 μM τ131 in the syringe; 20 mM Tris pH 7.5, 150 mM NaCl, 2 mM β-mercaptoethanol; 25 °C; both purified
T2 sequence: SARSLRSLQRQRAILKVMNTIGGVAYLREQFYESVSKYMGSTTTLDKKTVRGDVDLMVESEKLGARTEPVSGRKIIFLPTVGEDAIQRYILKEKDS

[3] = biological target: T3, τ138 (546–693), eWH-τIR (S. cerevisiae) (UniProt P34111); test: as above
T3 sequence: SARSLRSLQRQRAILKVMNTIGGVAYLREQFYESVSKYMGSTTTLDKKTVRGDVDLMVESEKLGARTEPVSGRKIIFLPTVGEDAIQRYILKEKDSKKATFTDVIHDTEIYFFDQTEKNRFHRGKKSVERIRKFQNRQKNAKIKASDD

[4] = biological target: T4, τ138 (641–693), τ131-Interaction Region (τIR) (S. cerevisiae) (UniProt P34111); test: as above
T4 sequence: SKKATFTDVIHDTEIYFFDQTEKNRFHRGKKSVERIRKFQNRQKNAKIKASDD

[5] = biological target: T5, GST-τ138 (641–693) (S. cerevisiae) (UniProt P34111); test: pull-down; 15 μg GST-τ138 (641–693) on Glutathione Sepharose 4B; 900 nM wild-type or mutant τ131; 50 mM Tris pH 7.5, 150 mM NaCl, 2 mM DTT, 0.1% Tween20; 4 °C, 4 h; both purified
T5 sequence: T4 sequence

- binding [5]: no binding (tested: 900 nM τ131)
B3: τ131 (123–566) D468K (domain or fragment, UniProt P33339 123-566)
chain: VLDPEVAQLLSQANEAFVRNDLQVAERLFNEVIKKDARNFAAYETLGDIYQLQGRLNDCCNSWFLAAHLNASDWEFWKIVAILSADLDHVRQAIYCFSRVISLNPMEWESIYRRSMLYKKTGQLARALDGFQRLYMYNPYDANILRELAILYVDYDRIEDSIELYMKVFNANVERREAILAALENALDSSDEESAAEGEDADEKEPLEQDEDRQMFPDINWKKIDAKYKCIPFDWSSLNILAELFLKLAVSEVDGIKTIKKCARWIQRRESQTFWDHVPDDSEFDNRRFKNSTFDSLLAAEKEKSYNIPIDIRVRLGLLRLNTDNLVEALNHFQCLYDETFSDVAKLYFEAATALTRAEKYKEAIDFFTPLLSLEEWRTTDVFKPLARCYKEIESYETAKEFYELAIKSEPDDLDIRVSLAEVYYRLNDPETFKHMLVDVVEMR
- binding [3]: no binding (tested: 15 μM in the cell, 150 μM in the syringe)
- binding [4]: no binding (tested: 15 μM in the cell, 150 μM in the syringe)

- binding [5]: no binding (tested: 900 nM τ131)
B4: τ131 (123–566) L469K (domain or fragment, UniProt P33339 123-566)
chain: B3 chain with K346D, L347K
- binding [3]: no binding (tested: 15 μM in the cell, 150 μM in the syringe)
- binding [4]: no binding (tested: 15 μM in the cell, 150 μM in the syringe)

- binding [1]: binds
B5: τ55 (Tfc7), τA subunit of endogenous S. cerevisiae TFIIIC (natural protein, UniProt Q12415 1-435, looked up)
chain: MVVNTIYIARHGYRSNWLPEGPYPDPLTGIDSDVPLAEHGVQQAKELAHYLLSLDNQPEAAFASPFYRCLETVQPIAKLLEIPVYLERGIGEWYRPDRKPVIPVPAGYEILSKFFPGVISQEWDSTLTPNEKGETEQEMYMRFKKFWPLFIERVEKEYPNVECILLVTHAASKIALGMSLLGYDNPRMSLNENGDKIRSGSCSLDKYEILKKSYDTIDETDDQTSFTYIPFSDRKWVLTMNGNTEFLSSGEEMNWNFDCVAEAGSDADIKKRQMTKKTSSPIPEADDQTEVETVYISVDIPSGNYKERTEIAKSAILQYSGLETDAPLFRIGNRLYEGSWERLVGTELAFPNAAHVHKKTAGLLSPTEENETTNAGQSKGSSTANDPNIQIQEEDVGLPDSTNTSRDHTGDKEEVQSEKIYRIKERIVLSNVRPM
notes: τ55 (Tfc7), subunit of S. cerevisiae TFIIIC, endogenous subunit in the purified complex; source: endogenous, purified from S. cerevisiae strain SC2342 as part of TFIIIC (TAP tag on τ60)

- binding [1]: binds
B6: τ95 (Tfc1), τA subunit of endogenous S. cerevisiae TFIIIC (natural protein, UniProt P32367 1-649, looked up)
chain: MPVEEPLATLSSIPDSSADQAPPLIADEFTLDLPRIPSLELPLNVSTKHSSIQKAIKMCGGIEKVKEAFKEHGPIESQHGLQLYLNDDTDSDGSKSYFNEHPVIGKRVPFRDESVILKVTMPKGTLSKNNNSVKDSIKSLKDSNKLRVTPVSIVDNTIKFREMSDFQIKLDNVPSAREFKSSFGSLEWNNFKSFVNSVPDNDSQPQENIGNLILDRSVKIPSTDFQLPPPPKLSMVGFPLLYKYKANPFAKKKKNGVTEVKGTYIKNYQLFVHDLSDKTVIPSQAHEQVLYDFEVAKKTKVYPGTKSDSKFYESLEECLKILRELFARRPIWVKRHLDGIVPKKIHHTMKIALALISYRFTMGPWRNTYIKFGIDPRSSVEYAQYQTEYFKIERKLLSSPIVKKNVPKPPPLVFESDTPGGIDSRFKFDGKRIPWYLMLQIDLLIGEPNIAEVFHNVEYLDKANELTGWFKELDLVKIRRIVKYELGCMVQGNYEYNKYKLKYFKTMLFVKESMVPENKNSEEGMGVNTNKDADGDINMDAGSQMSSNAIEEDKGIAAGDDFDDNGAITEEPDDAALENEEMDTDQNLKVPASIDDDVDDVDADEEEQESFDVKTASFQDIINKIAKLDPKTAETMKSELKGFVDEVDL
notes: τ95 (Tfc1), subunit of S. cerevisiae TFIIIC, endogenous subunit in the purified complex; source: endogenous, purified from S. cerevisiae strain SC2342 as part of TFIIIC (TAP tag on τ60)

Second part, the binder before the results:

B1: τ131 (Tfc4), τA subunit of endogenous S. cerevisiae TFIIIC (natural protein, UniProt P33339 1-1025, looked up)
chain: MAAGKLKKEQQNQSAERESADTGKVNDEDEEHLYGNIDDYKHLIQDEEYDDEDVPHDLQLSEDEYNSERDSSLLAEFSDYGEISEDDEEDFMNAIREASNFKVKKKKKNDKGKSYGRQRKERVLDPEVAQLLSQANEAFVRNDLQVAERLFNEVIKKDARNFAAYETLGDIYQLQGRLNDCCNSWFLAAHLNASDWEFWKIVAILSADLDHVRQAIYCFSRVISLNPMEWESIYRRSMLYKKTGQLARALDGFQRLYMYNPYDANILRELAILYVDYDRIEDSIELYMKVFNANVERREAILAALENALDSSDEESAAEGEDADEKEPLEQDEDRQMFPDINWKKIDAKYKCIPFDWSSLNILAELFLKLAVSEVDGIKTIKKCARWIQRRESQTFWDHVPDDSEFDNRRFKNSTFDSLLAAEKEKSYNIPIDIRVRLGLLRLNTDNLVEALNHFQCLYDETFSDVADLYFEAATALTRAEKYKEAIDFFTPLLSLEEWRTTDVFKPLARCYKEIESYETAKEFYELAIKSEPDDLDIRVSLAEVYYRLNDPETFKHMLVDVVEMRKHQVDETLHRISNEKSSNDTSDISSKPLLEDSKFRTFRKKKRTPYDAERERIERERRITAKVVDKYEKMKKFELNSGLNEAKQASIWINTVSELVDIFSSVKNFFMKSRSRKFVGILRRTKKFNTELDFQIERLSKLAEGDSVFEGPLMEERVTLTSATELRGLSYEQWFELFMELSLVIAKYQSVEDGLSVVETAQEVNVFFQDPERVKMMKFVKLAIVLQMDDEEELAENLRGLLNQFQFNRKVLQVFMYSLCRGPSSLNILSSTIQQKFFLRQLKAFDSCRYNTEVNGQASITNKEVYNPNKKSSPYLYYIYAVLLYSSRGFLSALQYLTRLEEDIPDDPMVNLLMGLSHIHRAMQRLTAQRHFQIFHGLRYLYRYHKIRKSLYTDLEKQEADYNLGRAFHLIGLVSIAIEYYNRVLENYDDGKLKKHAAYNSIIIYQQSGNVELADHLMEKYLSI
notes: τ131 (Tfc4), subunit of S. cerevisiae TFIIIC, endogenous subunit in the purified complex; Endogenous subunit; source: endogenous, purified from S. cerevisiae strain SC2342 as part of TFIIIC (TAP tag on τ60)
- binding [1]: binds

B2: GST-tagged τ131 (123–566), wild type (domain or fragment, S. cerevisiae, UniProt P33339 123-566, looked up)
chain: B3 chain with K346D
notes: also called GST-τ131; source: E. coli BL21 (DE3) Gold, purified (GST column, S200 SEC)
- binding [2]: no binding (tested: 15 μM in the cell, 150 μM in the syringe)

B7: τ138 (Tfc3), τB subunit of endogenous S. cerevisiae TFIIIC (protein, UniProt P34111 1-1160)
chain: MVLTIYPDELVQIVSDKIASNKGKITLNQLWDISGKYFDLSDKKVKQFVLSCVILKKDIEVYCDGAITTKNVTDIIGDANHSYSVGITEDSLWTLLTGYTKKESTIGNSAFELLLEVAKSGEKGINTMDLAQVTGQDPRSVTGRIKKINHLLTSSQLIYKGHVVKQLKLKKFSHDGVDSNPYINIRDHLATIVEVVKRSKNGIRQIIDLKRELKFDKEKRLSKAFIAAIAWLDEKEYLKKVLVVSPKNPAIKIRCVKYVKDIPDSKGSPSFEYDSNSADEDSVSDSKAAFEDEDLVEGLDNFNATDLLQNQGLVMEEKEDAVKNEVLLNRFYPLQNQTYDIADKSGLKGISTMDVVNRITGKEFQRAFTKSSEYYLESVDKQKENTGGYRLFRIYDFEGKKKFFRLFTAQNFQKLTNAEDEISVPKGFDELGKSRTDLKTLNEDNFVALNNTVRFTTDSDGQDIFFWHGELKIPPNSKKTPNKNKRKRQVKNSTNASVAGNISNPKRIKLEQHVSTAQEPKSAEDSPSSNGGTVVKGKVVNFGGFSARSLRSLQRQRAILKVMNTIGGVAYLREQFYESVSKYMGSTTTLDKKTVRGDVDLMVESEKLGARTEPVSGRKIIFLPTVGEDAIQRYILKEKDSKKATFTDVIHDTEIYFFDQTEKNRFHRGKKSVERIRKFQNRQKNAKIKASDDAISKKSTSVNVSDGKIKRRDKKVSAGRTTVVVENTKEDKTVYHAGTKDGVQALIRAVVVTKSIKNEIMWDKITKLFPNNSLDNLKKKWTARRVRMGHSGWRAYVDKWKKMLVLAIKSEKISLRDVEELDLIKLLDIWTSFDEKEIKRPLFLYKNYEENRKKFTLVRDDTLTHSGNDLAMSSMIQREISSLKKTYTRKISASTKDLSKSQSDDYIRTVIRSILIESPSTTRNEIEALKNVGNESIDNVIMDMAKEKQIYLHGSKLECTDTLPDILENRGNYKDFGVAFQYRCKVNELLEAGNAIVINQEPSDISSWVLIDLISGELLNMDVIPMVRNVRPLTYTSRRFEIRTLTPPLIIYANSQTKLNTARKSAVKVPLGKPFSRLWVNGSGSIRPNIWKQVVTMVVNEIIFHPGITLSRLQSRCREVLSLHEISEICKWLLERQVLITTDFDGYWVNHNWYSIYEST
- binding [1]: binds
